Measured values taken from patent US9745266B2 (THE REGENTS OF THE UNIVERSITY OF COLORADO, A BODY CORPORATE, priority 2013, dated 2017).
The name of at least one read-out is uncertain.

Legend:
MRSA ATCC 33592 = assay: Minimum resensitizing concentration (MRC), modified broth microdilution; type: cell-based, S. aureus; conditions: meropenem at 4 μg/ml
MRSA ATCC BAA-44 = assay: as above; type: cell-based, S. aureus; conditions: for MRC amox/clav: amoxicillin/clavulanic acid at 4/2 μg/ml; for MRC cefazolin: cefazolin at 8 μg/ml; for MRC methicillin: in presence of methicillin

| Compound | MRC meropenem (MRSA ATCC 33592) | MRC amox/clav (MRSA ATCC BAA-44) | MRC cefazolin (MRSA ATCC BAA-44) | MRC methicillin (MRSA ATCC BAA-44) |
| --- | --- | --- | --- | --- |
| C=C1CCCC2Nc3c(F)cc(Br)cc3C12CCNS(=O)(=O)c1ccc(NC(C)=O)cc1 (centres unmarked) [Cpd 13g, N-(4-{[2-(6-bromo-8-fluoro-4-methylidene-2,3,4,4a,9,9a-hexahydro-1H-carbazol-4a-yl)ethyl]sulfamoyl}phenyl)acetamide] | 16 µg/mL | 32 µg/mL | 32 µg/mL | 32 µg/mL |
| C=C1CCCC2Nc3c(F)cc(Br)cc3C12CCNS(=O)(=O)c1ccc(C#N)cc1 (centres unmarked) [Cpd 13h, N-[2-(6-bromo-8-fluoro-4-methylidene-2,3,4,4a,9,9a-hexahydro-1H-carbazol-4a-yl)ethyl]-4-cyanobenzene-1-sulfonamide] | 4 µg/mL | 8 µg/mL | 4 µg/mL | 4 µg/mL |
| C=C1CCCC2Nc3c(F)cc(Br)cc3C12CCNS(=O)(=O)c1ccc(C(F)(F)F)cc1 (centres unmarked) [Cpd 13i, N-[2-(6-bromo-8-fluoro-4-methylidene-2,3,4,4a,9,9a-hexahydro-1H-carbazol-4a-yl)ethyl]-4-(trifluoromethyl)benzene-1-sulfonamide] | 4 µg/mL | 4 µg/mL | 4 µg/mL | 2 µg/mL |
| C=C1CCCC2Nc3c(F)cc(Br)cc3C12CCNS(=O)(=O)c1ccc(Br)c(Br)c1 (centres unmarked) [Cpd 13j, 3,4-Dibromo-N-[2-(6-bromo-8-fluoro-4-methylidene-2,3,4,4a,9,9a-hexahydro-1H-carbazol-4a-yl)ethyl]benzene-1-sulfonamide] | 4 µg/mL | 4 µg/mL | 4 µg/mL | 2 µg/mL |
| C=C1CCCC2Nc3c(F)cc(Br)cc3C12CCNS(=O)(=O)c1ccc(Br)c(F)c1 (centres unmarked) [Cpd 13k, 4-Bromo-N-[2-(6-bromo-8-fluoro-4-methylidene-2,3,4,4a,9,9a-hexahydro-1H-carbazol-4a-yl)ethyl]-3-fluorobenzene-1-sulfonamide] | 4 µg/mL | 4 µg/mL | 4 µg/mL | 4 µg/mL |
| C=C1CCCC2Nc3c(F)cc(Br)cc3C12CCNS(=O)(=O)c1ccc(Br)cc1C(F)(F)F (centres unmarked) [Cpd 13l, 4-Bromo-N-[2-(6-bromo-8-fluoro-4-methylidene-2,3,4,4a,9,9a-hexahydro-1H-carbazol-4a-yl)ethyl]-2-(trifluoromethyl)benzene-1-sulfonamide] | 4 µg/mL | >32 µg/mL | >32 µg/mL | >32 µg/mL |
| C=C1CCCC2Nc3c(F)cc(Br)cc3C12CCNS(=O)(=O)c1ccc(Br)c(C(F)(F)F)c1 (centres unmarked) [Cpd 13m, 4-Bromo-N-[2-(6-bromo-8-fluoro-4-methylidene-2,3,4,4a,9,9a-hexahydro-1H-carbazol-4a-yl)ethyl]-3-(trifluoromethyl)benzene-1-sulfonamide] | 4 µg/mL | 4 µg/mL | 4 µg/mL | 2 µg/mL |
| C=C1CCCC2Nc3c(F)cc(Br)cc3C12CCNS(=O)(=O)c1ccc(Br)cc1C (centres unmarked) [Cpd 13n, 4-bromo-N-[2-(6-bromo-8-fluoro-4-methylidene-2,3,4,4a,9,9a-hexahydro-1H-carbazol-4a-yl)ethyl]-2-methylbenzene-1-sulfonamide] | 4 µg/mL | 4 µg/mL | 4 µg/mL | 2 µg/mL |
| C=C1CCCC2Nc3c(F)cc(Br)cc3C12CCNS(=O)(=O)c1ccc(Br)c(C)c1 (centres unmarked) [Cpd 13o, 4-bromo-N-[2-(6-bromo-8-fluoro-4-methylidene-2,3,4,4a,9,9a-hexahydro-1H-carbazol-4a-yl)ethyl]-3-methylbenzene-1-sulfonamide] | 4 µg/mL | 4 µg/mL | 4 µg/mL | 2 µg/mL |
| C=C1CCCC2Nc3c(F)cc(Br)cc3C12CCNS(=O)(=O)c1cc(Br)c(Br)s1 (centres unmarked) [Cpd 13p, 4,5-dibromo-N-[2-(6-bromo-8-fluoro-4-methylidene-2,3,4,4a,9,9a-hexahydro-1H-carbazol-4a-yl)ethyl]thiophene-2-sulfonamide] | 4 µg/mL | 4 µg/mL | 4 µg/mL | 2 µg/mL |
| C=C1CCCC2Nc3c(F)cc(Br)cc3C12CCNS(=O)(=O)c1cncc(Br)c1 (centres unmarked) [Cpd 13q, 5-bromo-N-[2-(6-bromo-8-fluoro-4-methylidene-2,3,4,4a,9,9a-hexahydro-1H-carbazol-4a-yl)ethyl]pyridine-3-sulfonamide] | 8 µg/mL | 8 µg/mL | 8 µg/mL | 8 µg/mL |
| C=C1CCCC2Nc3c(F)cc(Br)cc3C12CCNS(=O)(=O)c1ccc(Cl)nc1 (centres unmarked) [Cpd 13r, N-[2-(6-bromo-8-fluoro-4-methylidene-2,3,4,4a,9,9a-hexahydro-1H-carbazol-4a-yl)ethyl]-6-chloropyridine-3-sulfonamide] | 8 µg/mL | 8 µg/mL | 8 µg/mL | 8 µg/mL |
| C=C1CCCC2Nc3c(F)cc(Br)cc3C12CCNS(=O)(=O)c1cn(C)cn1 (centres unmarked) [Cpd 13s, N-[2-(6-bromo-8-fluoro-4-methylidene-2,3,4,4a,9,9a-hexahydro-1H-carbazol-4a-yl)ethyl]-1-methyl-1H-imidazole-4-sulfonamide] | 32 µg/mL | 32 µg/mL | 32 µg/mL | >32 µg/mL |
| C=C1CCCC2Nc3c(F)cc(Br)cc3C12CCNS(=O)(=O)c1cc2ccccc2o1 (centres unmarked) [Cpd 13t, N-[2-(6-bromo-8-fluoro-4-methylidene-2,3,4,4a,9,9a-hexahydro-1H-carbazol-4a-yl)ethyl]-1-benzofuran-2-sulfonamide] | 2 µg/mL | 4 µg/mL | 4 µg/mL | 4 µg/mL |
| O=S(=O)(NCCC12C=CCCC1Nc1ccc(Br)cc12)c1ccc(Cl)cc1 (centres unmarked) [Cpd 16, N-[2-(6-bromo-2,4a,9,9a-tetrahydro-1H-carbazol-4a-yl)ethyl]-4-chlorobenzene-1-sulfonamide] | 8 µg/mL | 4 µg/mL | 4 µg/mL | 4 µg/mL |
| C=C1CCCCC2Nc3c(F)cc(Br)cc3C12CCNC(=O)OCc1ccccc1 (centres unmarked) [Cpd 18b, benzyl N-(2-{2-bromo-4-fluoro-10-methylidene-5H,5aH,6H,7H,8H,9H,10H,10aH-cyclohepta[b]indol-10a-yl}ethyl)carbamate] | >32 µg/mL | >32 µg/mL | >32 µg/mL | >32 µg/mL |
| C=C1CCCCC2Nc3ccc(Br)cc3C12CCNS(=O)(=O)c1ccc(Cl)cc1 (centres unmarked) [Cpd 20, N-(2-{2-bromo-10-methylidene-5H,5aH,6H,7H,8H,9H,10H,10aH-cyclohepta[b]indol-10a-yl}ethyl)-4-chlorobenzene-1-sulfonamide] | 4 µg/mL | 4 µg/mL | 4 µg/mL | 2 µg/mL |
